# Assay results: a collection of fitness landscapes (doi:10.1126/science.1257360)
# The other results are listed elsewhere or left out.
# B1: PhoQ; a variant is named by its letters at X, in order, P23837 (parent)
# chain: MKKLLRLFFPLSLRVRFLLATAAVVLVLSLAYGMVALIGYSVSFDKTTFRLLRGESNLFYTLAKWENNKLHVELPENIDKQSPTMTLIYDENGQLLWAQRDVPWLMKMIQPDWLKSNGFHEIEADVNDTSLLLSGDHSIQQQLQEVREDDDDAEMTHSVAVNVYPATSRMPKLTIVVVDTIPVELKSSYMVWSWFIYVLSANLLLVIPLLWVAAWWSLRPIEALAKEVRELEEHNRELLNPATTRELTSLVRNLNRLLKSERERYDKYRTTLTDLTHSLKTPLXXLQXXLRSLRSEKMSVSDAEPVMLEQISRISQQIGYYLHRASMRGGTLLSRELHPVAPLLDNLTSALNKVYQRKGVNISLDISPEISFVGEQNDFVEVMGNVLDNACKYCLEFVEISARQTDEHLYIVVEDDGPGIPLSKREVIFDRGQRVDTLRPGQGVGLAVAREITEQYEGKIVAGESMLGGARMEVIFGRQHSAPKDE
# Variants of: B1
# Experiment: enrichment ratio after two sorts for PhoP signalling (ratio (wild type AVST 3.29)); higher = more functional
# Conditions: with PhoP (E. coli)
row,Variant,enrichment ratio
1,KTAV,≤ 0.25
2,WDYF,≤ 0.25
3,VGAP,≤ 0.25
4,RAIA,≤ 0.25
5,HPVI,≤ 0.25
6,MILR,0.712
7,QKYP,≤ 0.25
8,VGQP,≤ 0.25
9,RCYM,≤ 0.25
10,DIFV,≤ 0.25
11,DAMW,≤ 0.25
12,WFKP,≤ 0.25
13,QVAA,≤ 0.25
14,LAWP,0.808
15,WWPD,≤ 0.25
16,MHHV,≤ 0.25
17,NWHE,≤ 0.25
18,IKSH,≤ 0.25
19,NQVW,≤ 0.25
20,EMTV,≤ 0.25
21,ICWG,≤ 0.25
22,GSPS,≤ 0.25
23,YCPY,≤ 0.25
24,MPMN,≤ 0.25
25,EPFL,≤ 0.25

row,Variant,enrichment ratio
1,VQQC,≤ 0.25
2,KVSF,≤ 0.25
3,ATQV,≤ 0.25
4,GWKG,≤ 0.25
5,PHKI,≤ 0.25
6,VKLD,≤ 0.25
7,NPTQ,≤ 0.25
8,FIMA,≤ 0.25
9,ENRW,≤ 0.25
10,SMAA,6.43
11,PNMS,≤ 0.25
12,GLLM,9.19
13,FFEL,≤ 0.25
14,GPNV,≤ 0.25
15,NHHP,≤ 0.25
16,AGEF,≤ 0.25
17,VCLS,4.69
18,GNFG,≤ 0.25
19,SMMW,≤ 0.25
20,DRWQ,≤ 0.25
21,VIWY,≤ 0.25
22,FSVA,≤ 0.25
23,VWDS,≤ 0.25
24,ATRT,≤ 0.25
25,WDEM,≤ 0.25

row,Variant,enrichment ratio
1,DMWR,≤ 0.25
2,WRAS,≤ 0.25
3,FRFG,≤ 0.25
4,KSAL,≤ 0.25
5,IGSM,≤ 0.25
6,MDPF,≤ 0.25
7,DFSH,≤ 0.25
8,TNMV,12.6
9,GYIW,≤ 0.25
10,AYKK,≤ 0.25
11,HDQI,≤ 0.25
12,EKYR,≤ 0.25
13,CYFF,≤ 0.25
14,HLFD,≤ 0.25
15,YNHN,≤ 0.25
16,RESH,≤ 0.25
17,KSRY,≤ 0.25
18,YMWY,≤ 0.25
19,DGQK,≤ 0.25
20,RLRP,≤ 0.25
21,FPCS,≤ 0.25
22,FAHS,≤ 0.25
23,RLKI,≤ 0.25
24,RDLY,≤ 0.25
25,YQDW,≤ 0.25

row,Variant,enrichment ratio
1,EQPP,≤ 0.25
2,DYNY,1.23
3,TTTV,11
4,NESD,≤ 0.25
5,YFWE,≤ 0.25
6,NPND,≤ 0.25
7,WNVR,≤ 0.25
8,MGTH,≤ 0.25
9,VHIT,≤ 0.25
10,RSFN,≤ 0.25
11,LLIL,≤ 0.25
12,WHCG,≤ 0.25
13,WSCI,≤ 0.25
14,SMVV,8.39
15,WNPG,≤ 0.25
16,HKML,≤ 0.25
17,TRLH,6.28
18,HKDI,≤ 0.25
19,RDYF,≤ 0.25
20,EPTI,≤ 0.25
21,EGDW,≤ 0.25
22,AKYQ,≤ 0.25
23,DNHL,≤ 0.25
24,LACN,≤ 0.25
25,NIEM,≤ 0.25

row,Variant,enrichment ratio
1,DGYH,≤ 0.25
2,YQGH,≤ 0.25
3,SINC,4.48
4,INLT,≤ 0.25
5,YNSL,1.06
6,WRYL,≤ 0.25
7,AYTI,0.326
8,ERIA,≤ 0.25
9,LAEK,≤ 0.25
10,TSTS,9.31
11,MYQM,≤ 0.25
12,QRIV,≤ 0.25
13,TRWE,≤ 0.25
14,RKRV,≤ 0.25
15,GDMD,≤ 0.25
16,VDFF,≤ 0.25
17,IICR,≤ 0.25
18,EKTL,≤ 0.25
19,FDRL,≤ 0.25
20,ELPT,≤ 0.25
21,WLCI,≤ 0.25
22,IFRE,≤ 0.25
23,KYCF,≤ 0.25
24,NYAA,≤ 0.25
25,EMTT,≤ 0.25

row,Variant,enrichment ratio
1,PNKV,≤ 0.25
2,HCDP,≤ 0.25
3,FEIS,1.48
4,IMFV,≤ 0.25
5,QSVL,≤ 0.25
6,NRHE,≤ 0.25
7,YWIY,≤ 0.25
8,VHVR,≤ 0.25
9,HWHR,≤ 0.25
10,QRVT,≤ 0.25
11,SKAA,1.5
12,KTRE,≤ 0.25
13,RFIF,≤ 0.25
14,LHCM,≤ 0.25
15,DVWE,≤ 0.25
16,IISF,≤ 0.25
17,GWTH,≤ 0.25
18,QGCK,≤ 0.25
19,GILV,10.9
20,NQTP,≤ 0.25
21,FMFA,≤ 0.25
22,QKIH,≤ 0.25
23,GAQL,≤ 0.25
24,RGLH,≤ 0.25
25,MASW,≤ 0.25

row,Variant,enrichment ratio
1,FKDF,≤ 0.25
2,VATL,≤ 0.25
3,WLTG,≤ 0.25
4,YCKW,≤ 0.25
5,TRQW,≤ 0.25
6,YGSA,≤ 0.25
7,IRPP,≤ 0.25
8,RHLS,≤ 0.25
9,RHFY,≤ 0.25
10,HPED,≤ 0.25
11,IPWD,≤ 0.25
12,YETV,2.22
13,ENSQ,≤ 0.25
14,CSTL,≤ 0.25
15,KGLS,≤ 0.25
16,WFNR,≤ 0.25
17,IKAS,≤ 0.25
18,DCLF,≤ 0.25
19,MWGQ,≤ 0.25
20,GANH,≤ 0.25
21,ETRK,≤ 0.25
22,AESE,≤ 0.25
23,PIQH,≤ 0.25
24,VCFP,≤ 0.25
25,FVRI,≤ 0.25

row,Variant,enrichment ratio
1,KFIL,0.334
2,GEYN,≤ 0.25
3,PVLW,≤ 0.25
4,FKVY,≤ 0.25
5,TKTR,≤ 0.25
6,SFEP,≤ 0.25
7,EVGK,≤ 0.25
8,ERSH,≤ 0.25
9,HWRH,≤ 0.25
10,LKPS,≤ 0.25
11,EIHT,≤ 0.25
12,EALF,≤ 0.25
13,LYEN,≤ 0.25
14,GGSD,≤ 0.25
15,TYYY,1.73
16,SNHV,≤ 0.25
17,YCDN,≤ 0.25
18,WPIM,≤ 0.25
19,FMIT,≤ 0.25
20,FRPH,≤ 0.25
